Results published in ChEMBL document CHEMBL4888484, “Replenishing the malaria drug discovery pipeline: Screening and hit evaluation of the MMV Hit Generation Library 1 (HGL1) against asexual blood stage Plasmodium falciparum ,using a nano luciferase reporter read-out” (2022).
Out of some 4,800 compounds screened, about 410 (8.5%) showed an effect of 50% or more. The list shows a part of the results.

Each compound was assayed on Plasmodium falciparum (assay: Confirmatory screen in NF54 pLDH assay, in single point, at 2uM, 72h). Settings: timepoint 72 hour.
Type: functional, Erythrocyte

| Compound | % Inhibition |
| --- | --- |
| Cc1cccc(Cc2c(C)nn(-c3nc(C)cc(C)n3)c2O)c1 | -7% |
| CCn1nc(C)c2c(C(=O)Nc3cc(C)ccc3C)cc(-c3ccc(C)cc3)nc21 | 7% |
| COc1ccc(OC)c(CN2C(=O)c3cc4c(OC)ccc(OC)c4n3C[C@]2(C(=O)NC2CCCCCC2)c2ccccc2)c1 | 15% |
| O=C(NCc1cccs1)c1cn[nH]c1-c1ccccc1 | 0% |
| Cn1ccc(NC(=O)c2n[nH]c3ccccc23)n1 | -15% |
| COc1ccc(N2CCN(c3nccn4nc(-c5ccc(OC)c(OC)c5)cc34)CC2)cc1 | -12% |
| Cc1ccc(CNc2ncnc3c2cnn3-c2ccccn2)cc1 | 12% |
| O=C(c1nc(-c2cccs2)cs1)N1CCN(c2ccccc2)CC1 | -22% |
| Cc1cncc(C(=O)N2CC(n3cnnc3C)C2)c1 | -13% |
| O=C(NC1CC1)c1cn(CC2(O)CCN(Cc3ccccc3)CC2)nn1 | 16% |
| Cc1cc(C)c(CC(=O)Nc2cnn(C)c2C2CC2)s1 | 9% |
| CC(C)(C)NC1=Nc2ccccc2N[C@]12CCCN(C(=O)c1ccc3[nH]cnc3c1)C2 | -20% |
| Cc1cccc2c(-c3cc(N)nc(N)n3)c[nH]c12 | 100% |
| CCN1CCCCc2cc(C(=O)N[C@@H](C)COC)sc21 | -3% |
| CCc1nc(C(=O)[C@H](C#N)C(=O)Nc2cccc(C)c2)co1 | 0% |
| Cc1nn(Cc2cccc(F)c2)c(C)c1NC(=O)c1cccc(COc2ccc(Br)cc2)c1 | 16% |
| Cc1cc(C(=O)N2CCC[C@H]2c2nc(C3CCOCC3)no2)n(C)n1 | 12% |
| CCc1c(NC(=O)[C@@H](C)C2CC2)nnn1CCc1ccc(OC)cc1 | 12% |
| CN1CCN(C(=O)[C@H](C(=O)c2ccccc2)n2cc(Cl)ccc2=O)CC1 | -20% |
| Cc1cnc(NC(=O)C(=O)N2CCC[C@H](n3cccn3)C2)s1 | 4% |
| CCCC(C)(C)N(Cc1cccs1)Cc1nnc2n1CCOC2 | 10% |
| Cc1nc(C)c(CN2C(=O)C3CCCCC3C2=O)s1 (stereo unspecified) | -19% |
| Cc1cc(=O)c(CO)nn1CCCc1ccccc1 | 11% |
| O=C(OCC1OCC(n2cc(C(F)(F)F)c(=O)[nH]c2=O)O1)c1ccccc1 (stereo unspecified) | 6% |
| O=C(CCC(=O)N1CCCC1)NCc1ccc2c(c1)OCO2 | -11% |
| Cc1cc(N2CCn3c(nc4ccccc43)C2)ccc1NC(=O)C1CCCCC1 | 14% |

| Compound | % Inhibition |
| --- | --- |
| COCc1ncc(C)n1CCNC(=O)c1cc(-c2cc(C)ccc2C)n[nH]1 | 3% |
| CCc1cc(C(=O)N2CCC[C@H](C)C2)c2c(C3CC3)nn(-c3ccccc3)c2n1 | 4% |
| CC1CCCN(c2nc(O)c3c(n2)NC(=O)CC3c2cccc(C(F)(F)F)c2)C1 (stereo unspecified) | 9% |
| COc1ccccc1Cn1c(=O)c2sccc2n(CC(=O)NCCc2ccc(Cl)cc2)c1=O | 8% |
| CC(C)C[C@@H]1N[C@H](C(=O)NCCN(C)C)Cc2c[nH]c3cccc1c23 | -19% |
| Cc1cc(-c2ccco2)cc(Cl)c1N | 11% |
| Cn1cc(Oc2ccccc2C(=O)Nc2cccnc2O)cn1 | 4% |
| COc1cccc(C(=O)c2c[nH]c(C(=O)NCc3cccc(C(F)(F)F)c3)c2)c1 | 6% |
| O=C(NCc1ccc(O)nc1)C1(Cc2cccc(Cl)c2)CCCC1 | 6% |
| CC(C)N(CCCNC(=O)c1cnn2c3c(cnc12)CCCCCC3)Cc1ccccc1 | 9% |
| Cc1nc(N2CCOCC2)cc(N2CCN(C(=O)c3cccc(Br)c3)CC2)n1 | 7% |
| Cn1nc(C(=O)N2CCCCC[C@H]2C2CCCCC2)ccc1=O | -7% |
| Cc1cccc(NC(=O)Cn2c(C(F)(F)F)nc3cc4c(cc32)OCCCO4)c1C | 12% |
| NC(=O)C1CCN(CCC(=O)N2CCc3cc4ccc3[C@@H]2c2cccc(c2)OCCCNC(=O)c2cc(ccc2O)O4)CC1 | 93% |
| CC(C)OC[C@@H](O)CN1CC(C2CCC2)C1 | -19% |
| Cc1cccc(-n2c(-c3sc(Nc4ccccc4)nc3-c3ccccc3)nc3ccccc3c2=O)c1 | 11% |
| CC(C)(C)CCS(=O)(=O)N1CCC[C@H]1C1CCCCC1 | 8% |
| CCOC(=O)c1c(CN2CCCC2)n(C)c2cc(-c3cccnc3)c(O)c(Cn3ccnc3)c12 | 68% |
| COc1c(S(=O)(=O)c2ccc(C#N)cc2)cnc2ccc(Cl)cc12 | -20% |
| O=C(CN1N=C(C(=O)Nc2ccccc2)CCC1=O)Nc1ccc(OC(F)(F)F)cc1 | -8% |
| COc1ccc(Oc2nccc(-c3ccc(F)cc3)c2C#N)cc1 | 15% |
| Cc1cc(=O)[nH]c(-n2nc(C3CC3)cc2NC(=O)C(C)(C)Oc2ccc(Cl)cc2)n1 | 82% |
| COc1ccc2cc(S(=O)(=O)n3ccc(C)n3)ccc2c1 | 0% |
| CC(=O)NCCNC(=O)Nc1ccccc1N(C)C1CCCC1 | -5% |
| Cc1ccc(NC(=O)CC(=O)O)c(C)c1 | -5% |
| Cn1c(=O)c2c(c(-c3ccccc3)cn2C)n(CC(=O)Nc2cc(Cl)cc(Cl)c2)c1=O | -13% |

| Compound | % Inhibition |
| --- | --- |
| CCc1sc(N(C(=O)CCc2ccccc2)c2ccc(C)cc2C)nc1-c1ccc(OC)cc1 | 9% |
| CN(c1ncc(S(=O)(=O)c2ccccc2)c(N)n1)C1CCCCC1 | -19% |
| CCC(=O)Nc1nc2ccc(NS(=O)(=O)Cc3ccccc3)cc2s1 | 3% |
| NC(=O)NOCc1cccc(Cl)c1 | 6% |
| O=C(Nc1cc(N2CCCS2(=O)=O)ccc1O)c1cccc(Oc2cccc(C(F)(F)F)c2)c1 | 97% |
| CC(C)c1cc(=O)[nH]c(-n2nc(C3CC3)cc2NC(=O)c2ccc(F)cc2)n1 | 89% |
| Nc1ccc2c(c1)Oc1cc(N)ccc1OCCOCCOCCO2 | -8% |
| Cc1cc(Br)c2c(c1)C(O)(N1CCCC(C)C1)C(=O)N2 (stereo unspecified) | 9% |
| COc1cc2c(cc1OC)[C@@H](NC(=O)c1cnc(C3(C)OCCO3)s1)CCCC2 | 49% |
| O=C(Nc1ncc(Cc2ccc(Cl)c(C(F)(F)F)c2)s1)c1ccc2nnsc2c1 | 10% |
| O=C(Nc1cnc(-n2ccnc2)nc1)C(c1ccccc1)c1ccccc1 | 29% |
| Cc1cccc(CNC(=O)c2ccc3c(c2)N(C)[C@@H]2CCCCCN2C3=O)c1 | 4% |
| Cc1ccc(C2=NC3(CCCC3)NC2=O)cc1 | 17% |
| COc1cccc(-c2ccc(=O)n(CCC(=O)N3CCN(Cc4ccc5c(c4)OCO5)CC3)n2)c1 | 14% |
| C[C@@H](C1CC1)N(C1CC1)S(=O)(=O)c1cccc2c1N=S=N2 | 6% |
| O=C(c1cscn1)N1CC[C@H](Oc2cccc(Cl)c2)C1 | 39% |
| CN1CCN(C(=O)C[C@@H]2CCN3C[C@@H]2/C=C\COc2ccccc2CN(C(=O)CC(C)(C)C)CC3=O)CC1 | 9% |
| CCCc1noc([C@H]2CC(=O)N(c3ccccc3C)C2)n1 | 8% |
| Cc1nnc(C(C)NC(Cc2ccccc2)c2sccc2C)s1 (stereo unspecified) | -18% |
| O=C(Cn1ccnc1)N1CCCCCC1CC(O)c1ccccc1 (stereo unspecified) | 10% |
| Cc1ccc(CNC(=O)c2nc(-c3ccncc3)cs2)o1 | 7% |
| O=C(Cc1ccc(N(Cc2cccc(F)c2)C(=O)c2cccc(F)c2)cc1)NCCN1CCCCC1 | 29% |
| O=C1CCC[C@H](O)N1Cc1ccc(F)cc1 | 8% |
| COc1ccc(N2CCN(C(=O)CCn3nc(-c4cccc(Cl)c4)ccc3=O)CC2)cc1 | -21% |
| CCN1CN(C(=O)Cc2c[nH]c3cc(C)ccc23)CC1=O | -15% |
| CC(=O)N[C@H]1[C@H](c2ccccc2)N(CCCc2ccccc2)CC[C@@]1(C)O | 4% |

| Compound | % Inhibition |
| --- | --- |
| O=C1c2cc3ccccc3c(-c3ccccc3)c2C(=O)N1c1ccccc1 | -16% |
| CC(C(=O)Nc1ncccn1)N1CCCC1Cn1cccn1 (stereo unspecified) | -8% |
| COc1ccc2c(c1)CN(C(=O)[C@H]1OCCO[C@H]1C)CCO2 | -4% |
| O=C1c2cc3ccccc3n2C[C@](C(=O)NC2CCCCCCC2)(c2ccccc2)N1Cc1cccc(Cl)c1 | -5% |
| CCn1nc(C(=O)N(C2CCCCC2)C2CC2)c2ccccc2c1=O | -7% |
| Cc1csc(S(=O)(=O)N2CC[C@H](n3cccn3)C2)c1 | -13% |
| Cc1nccc(O[C@H]2CCCN(C(=O)CN3CCN(c4ccccc4)C3=O)C2)n1 | 9% |
| Fc1ccc(-c2csc(N3CCC[C@H](c4cn[nH]c4)C3)n2)cc1 | 11% |
| COc1ccc(Br)c(C#N)c1C | 10% |
| CCC1C(C(=O)NCCN(C)CCOC)CCN1C(=O)OC(C)(C)C (stereo unspecified) | 1% |
| CC(CC(=O)O)CC(=O)N1CC(C)CC(C)C1 (stereo unspecified) | 14% |
| COc1cccc(CNC(=O)Cn2c(=O)n(Cc3cccc(OC)c3)c(=O)c3sccc32)c1 | 12% |
| COc1ccc(C2=Nc3ccc(S(=O)(=O)N4CCOCC4)cc3S(=O)(=O)N2)cc1 | -5% |
| CCS(=O)(=O)Nc1ccc(Br)cc1Cl | -1% |
| COc1ccnc(CN2CC[C@](C)(O)[C@H](O)C2)c1 | 6% |
| O=C(Cn1c(=O)n(Cc2ccc3c(c2)OCO3)c(=O)c2sccc21)Nc1ccc(Cl)cc1F | 13% |
| CC[C@@H](C(=O)NCc1ccc(OC(C)C)cc1)n1ccc2cc(S(=O)(=O)N3CCCCC3)ccc21 | 10% |
| Nc1cccnc1N1CCc2ccccc21 | 12% |
| Cc1cnccc1NCCNCc1cccc(O)c1Cl | 101% |
| CCc1ccc(NC(=O)[C@H](C)N2CCC(NS(=O)(=O)c3cccs3)CC2)cc1 | 77% |
| COc1c(Cl)cc(Cl)cc1C#N | -17% |
| CN(Cc1cccnc1)c1ccc(S(=O)(=O)C(F)F)cc1 | 0% |
| Cc1n[nH]cc1CNC1CC2CCC1C2 (stereo unspecified) | 2% |
